In the supplement of paper PMC12217912:
The other results are listed elsewhere or left out. The full chains were built here from the parent and the listed change. Inactive controls read about 0.05.

B1: TEV protease; numbered along this chain (parent)
chain: MGESLFKGPRDYNPISSSICHLTNESDGHTTSLYGIGFGPFIITNKHLFRRNNGTLVVQSLHGVFKVKDTTTLQQHLVDGRDMIIIRMPKDFPPFPQKLKFREPQREERICLVTTNFQTKSMSSMVSDTSCTFPSGDGIFWKHWIQTKDGQCGSPLVSTRDGFIVGIHSASNFTNTNNYFTSVPKNFMELLTNQEAQQWVSGWRLNADSVLWGGHKVFMVKPEEPFQPVKEATQL

Variants of: B1
Assay: raw area under fraction-flipped curve 0-4 h after induction (AUC4h, not background-subtracted), DNA-recorder readout of cleavage of the substrate (dimensionless); higher = more cleavage of the substrate by the protease variant
Conditions: temperature: 34 °C; time window: 0-4 h after rhamnose induction
Procedure: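 In vivo DNA recorder in E. coli TOP10(DE3) ΔrhaA at 34 °C. Each TEVp single-site mutant (parent TEVp 0) is paired with a single-site variant of the 7-mer TEVs (canonical ENLYFQ|S). The substrate sits between flexible linkers in a Bxb1-sfGFP-TEVs-SsrA fusion, so cleavage stabilises Bxb1 and speeds flipping of a recombination array, read by NGS. The value is the raw area under the fraction-flipped curve over 0-4 h after rhamnose induction (AUC4h), with ≥20 reads per time point. It is not background-subtracted; inactive controls average about 0.047.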
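Note: Bxb1 expression induced with 0.2% (w/v) L-rhamnose at OD600 near 0.5, cultures sampled hourly, flipped fraction per protease–substrate barcode pair counted by paired-end Illumina sequencing.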

Row | Variant | area with substrate EALYFQS | area with substrate ECLYFQS | area with substrate EDLYFQS | area with substrate EFLYFQS | area with substrate EHLYFQS | area with substrate EILYFQS | area with substrate EKLYFQS | area with substrate EMLYFQS | area with substrate EQLYFQS | area with substrate ERLYFQS | area with substrate ESLYFQS | area with substrate EVLYFQS | area with substrate EGLYFQS | area with substrate ELLYFQS | area with substrate EPLYFQS | area with substrate EWLYFQS | area with substrate EELYFQS | area with substrate ETLYFQS | area with substrate EYLYFQS
1 | G202E | 0.0958 | 0.0597 | 0.0762 | 0.0704 | 0.0793 | 0.0517 | 0.0718 | 0.062 | 0.0765 | 0.0809 | 0.0714 | 0.0677 | – | – | – | – | – | – | –
2 | I164S | 0.0493 | 0.0556 | 0.0462 | 0.0537 | – | 0.0371 | – | – | – | – | 0.0493 | 0.0312 | 0.0592 | 0.0603 | 0.0389 | 0.0495 | – | – | –
3 | I164R | 0.0608 | 0.0521 | 0.0609 | – | – | 0.0563 | 0.0567 | 0.0519 | 0.078 | 0.0544 | 0.0582 | 0.0526 | 0.0513 | 0.0531 | 0.0491 | 0.0678 | 0.0479 | 0.0506 | 0.0589
4 | I164K | 0.0526 | 0.0448 | – | – | – | – | – | – | – | – | 0.0577 | 0.0532 | – | – | 0.0472 | 0.0835 | – | – | –
5 | L191V | 0.166 | – | 0.092 | 0.0739 | – | – | 0.0845 | – | 0.13 | 0.0965 | – | 0.0937 | – | 0.0922 | – | 0.0885 | 0.107 | 0.0835 | –
6 | T181R | 0.051 | 0.0498 | 0.0527 | – | 0.0199 | – | 0.0558 | 0.0532 | 0.0502 | 0.0583 | 0.056 | 0.0476 | 0.0622 | – | – | 0.0349 | 0.0539 | – | 0.0578
7 | T181S | 0.076 | 0.124 | 0.146 | – | – | 0.107 | – | – | 0.162 | 0.119 | 0.12 | 0.114 | 0.0971 | – | – | – | – | – | 0.0825
8 | N175V | 0.0671 | 0.0563 | 0.0605 | 0.0539 | 0.0606 | 0.0681 | 0.0649 | 0.0705 | 0.0667 | 0.0729 | 0.0701 | 0.0758 | 0.0579 | – | – | 0.0907 | 0.0648 | 0.0562 | 0.0628
9 | S182Q | 0.0943 | 0.0774 | 0.119 | 0.107 | – | 0.1 | 0.0985 | 0.102 | 0.0932 | – | 0.0805 | 0.0849 | 0.0476 | 0.126 | 0.116 | 0.09 | 0.0858 | – | 0.106
10 | D161E | 0.0905 | 0.0892 | 0.0886 | 0.0721 | – | 0.0683 | 0.0808 | 0.0929 | 0.0822 | 0.094 | 0.0868 | 0.0776 | 0.0608 | 0.0836 | 0.109 | – | 0.113 | – | 0.0818
11 | V200R | 0.0873 | – | – | – | – | 0.12 | – | 0.0782 | – | – | 0.103 | – | – | – | – | – | – | – | –
12 | I167H | 0.0841 | 0.0576 | 0.0758 | – | – | 0.0804 | 0.0653 | 0.0718 | 0.0673 | – | 0.0686 | 0.0707 | 0.0879 | – | – | 0.0752 | – | 0.0562 | 0.0642
13 | I167N | 0.0581 | 0.047 | – | – | 0.0535 | 0.0607 | 0.0618 | – | 0.0658 | – | 0.0477 | 0.0542 | 0.0652 | 0.0611 | 0.0606 | – | 0.0969 | 0.0715 | –
14 | S169G | 0.0654 | 0.0712 | – | 0.0615 | 0.0624 | – | 0.0635 | 0.0613 | – | – | 0.0634 | 0.0586 | – | 0.0427 | – | – | 0.0505 | 0.0566 | 0.0503
